Measured values reported in PubChem BioAssay AID1508642 (National Center for Advancing Translational Sciences (NCATS), 2021).
About 200 (0.47%) of roughly 43,000 compounds were called active. Roughly 12% stayed inconclusive and do not appear here. The call rests on the fitted dose curve; in most records, active means well fitted cell-killing curve with a large enough effect; inconclusive means small, poorly fitted or top-dose-only effect, or effect the other way; inactive means flat fitted curve, though single readings scatter. Some of the results follow.

Experiment: Cell viability qHTS assay in S16 Pmp22-F2sN cells; further: nearly all actives have a fitted effect of over 65% in size
Settings: S16 Pmp22-F2sN Schwann cells (luciferase reporters placed in the Pmp22 gene) viability, CellTiter-Glo, 24 h; series mostly up to 57.5 µM; activity change, negative = cytotoxicity: at the top concentration
Summary of the method: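 Seed 500-1,000 S16 Pmp22-F2sN cells per well in phenol-red-free DMEM with 10% heat-inactivated FBS; pin-add 23 nL compound; incubate 24 h at 37C; add CellTiter-Glo, wait 15 min protected from light; read luminescence.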
On the % scale 0 is the no-effect control and ±100 the full control effect.

| SMILES | activity change, negative = cytotoxicity |
| --- | --- |
| CCOc1ccc(CCNC(=O)CCSCc2ccc(Cl)cc2)cc1OCC | inactive: 2.14% |
| CC(C)Oc1ccc(CNC(=O)c2cccc(NC(=O)N3CCSc4ncccc43)c2)cc1 | inactive: -11.6% |
| Cc1cccc(Cc2c(C)nc3nc(SCC(=O)NCc4ccccc4)nn3c2C)c1 | inactive: -5.95% |
| CCC(=O)N1CCc2cc(Br)cc(S(=O)(=O)N3CCCC(C(=O)Nc4cccc(F)c4)C3)c21 (stereo unspecified) | inactive: 7.46% |
| CCOc1ccc(NC(=O)c2oc3ccccc3c2NC(=O)c2cc(C)cc(C)c2)cc1 | inactive: 15.6% |
| COc1ccc(CCNC(=O)Cn2ncc3c(=O)oc4ccccc4c32)c(OC)c1 | inactive: 15.5% |
| COc1ccc(CC(=O)NCc2ccc3c(c2)CCN3C(=O)c2ccc(Cl)cc2)cc1 | inactive: -0.125% |
| CCc1ccc2oc(-c3cc(NC(=O)c4cccnc4)cc(C)c3O)nc2c1 | inactive: 12.3% |
| CCOC(=O)c1sc(NC(=O)c2cc3nc(-c4ccccc4)cc(C(F)(F)F)n3n2)c(C(=O)OCC)c1C | inactive: 2.92% |
| Cc1cc(C)cc(Oc2c(C(F)(F)F)oc3cc(OCC(=O)NC4CCCCC4)ccc3c2=O)c1 | inactive: 2.11% |
| CCOC(=O)c1cc(-c2ccccc2)n(-c2cccc(C(=O)Nc3cc(OC)cc(OC)c3)c2)c1C | inactive: -8.36% |
| O=C(Nc1cccc(Br)c1)N1CCC(CN2CCCCCC2)CC1 | inactive: 6.86% |
| COc1cccc(CNC(=O)CN(c2ccc(C(C)C)cc2)S(=O)(=O)c2c(C)noc2C)c1 | inactive: 3.69% |
| CCC(C)NC(=O)CCSc1nc(-c2ccc(OC)cc2)cc(C(F)(F)F)n1 (stereo unspecified) | inactive: 15.5% |
| O=C(O)c1cccc(Nc2ncnc3scc(-c4ccccc4)c23)c1 | inactive: 3.59% |
| O=C(NCc1ccc(F)cc1)c1cc(-c2ccc(Cl)cc2)n[nH]1 | inactive: -1.26% |
| Cc1ccccc1C(=O)Oc1c(Sc2ccccc2)c(C)nn1C(C)(C)C | inactive: -12.5% |
| Cc1ccc(C(=O)Nc2nnc(S(=O)(=O)N3CCc4ccccc43)s2)cc1 | inactive: -4.27% |
| COc1ccc(NC(=O)c2cc(CN3CCCC3)on2)cc1Cl | inactive: -0.439% |
| CCCCNC(=O)C1CCC(CNS(=O)(=O)c2ccc(Cl)cc2)CC1 (stereo unspecified) | inactive: 13.4% |
| CCCCOc1cccc(C(=O)N(Cc2cccs2)c2ccc(OC)cc2)c1 | inactive: -23.2% |
| CC(=O)NCCn1c(SCC(=O)Nc2ccc(C)cc2)nc2ccccc2c1=O | inactive: -12.5% |
| CC(C)(C)c1ccc(-c2nc(SCC(=O)Nc3ccc(Cl)cc3)[nH]c(=O)c2C#N)cc1 | inactive: 6.15% |
| COc1ccc(N2CC(NC(=O)c3ccc(S(=O)(=O)N4CCOCC4)cc3)CC2=O)cc1OC (stereo unspecified) | inactive: 6.55% |
| CCc1cnc2c(c1SCC(=O)c1ccc(OC)cc1)c(=O)n(C)c(=O)n2C | inactive: -8.81% |
| COc1ccccc1CNC(=O)CC(c1ccc(OC)c(OC)c1)N1Cc2ccccc2C1=O (stereo unspecified) | inactive: -0.103% |
